Out of some 310,000 compounds screened, about 2,200 (0.71%) showed an effect of 50% or more. Effects have a minus sign here. The list shows a part of the results.
Each compound was assayed against human ether-à-go-go-related gene (hERG) potassium channel (human, UniProt Q12809) (assay: primary screen, population patch clamp on CHO cells stably expressing hERG).
Chain of human ether-à-go-go-related gene (hERG) potassium channel (Q12809 whole entry, looked up): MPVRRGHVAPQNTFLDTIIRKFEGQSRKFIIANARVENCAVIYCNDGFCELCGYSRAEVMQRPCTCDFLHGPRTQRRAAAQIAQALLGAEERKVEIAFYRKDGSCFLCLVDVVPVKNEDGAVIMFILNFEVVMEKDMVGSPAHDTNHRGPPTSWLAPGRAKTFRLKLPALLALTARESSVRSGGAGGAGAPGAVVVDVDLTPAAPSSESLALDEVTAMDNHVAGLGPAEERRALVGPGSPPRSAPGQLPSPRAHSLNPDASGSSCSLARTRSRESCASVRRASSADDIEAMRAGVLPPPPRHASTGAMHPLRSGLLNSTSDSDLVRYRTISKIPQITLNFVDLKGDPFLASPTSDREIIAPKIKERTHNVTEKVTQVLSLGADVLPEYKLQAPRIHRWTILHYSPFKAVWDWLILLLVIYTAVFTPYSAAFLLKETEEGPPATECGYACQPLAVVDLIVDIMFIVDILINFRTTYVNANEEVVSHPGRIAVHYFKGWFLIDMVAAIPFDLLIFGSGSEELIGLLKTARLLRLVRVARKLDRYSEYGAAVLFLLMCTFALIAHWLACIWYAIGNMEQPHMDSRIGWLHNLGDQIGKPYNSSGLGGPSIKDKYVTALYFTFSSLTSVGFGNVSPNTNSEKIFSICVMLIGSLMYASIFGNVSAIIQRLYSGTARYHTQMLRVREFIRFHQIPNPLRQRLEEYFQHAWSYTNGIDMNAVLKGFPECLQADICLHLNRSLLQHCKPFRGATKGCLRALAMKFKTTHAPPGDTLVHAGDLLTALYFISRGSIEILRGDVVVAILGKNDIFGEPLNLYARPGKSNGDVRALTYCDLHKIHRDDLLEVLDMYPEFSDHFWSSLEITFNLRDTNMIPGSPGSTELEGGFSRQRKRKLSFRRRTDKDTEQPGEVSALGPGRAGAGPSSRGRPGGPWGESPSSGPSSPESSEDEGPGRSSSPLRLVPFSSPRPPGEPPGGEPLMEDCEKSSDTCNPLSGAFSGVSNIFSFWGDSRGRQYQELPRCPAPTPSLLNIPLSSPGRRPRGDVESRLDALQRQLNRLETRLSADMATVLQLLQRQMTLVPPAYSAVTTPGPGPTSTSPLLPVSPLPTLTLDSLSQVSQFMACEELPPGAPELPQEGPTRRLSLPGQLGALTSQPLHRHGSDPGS

| SMILES | hERG current change (%, negative = inhibition) at 1uM [%] |
| --- | --- |
| c1cc2nncn2nc1N1CCCC1 | 4.9 |
| COc1ccc(Cn2c(=O)[nH]c3cc(C(=O)NCCCN4CCCC4=O)ccc3c2=O)cc1 | 8.02 |
| Cc1cccc(NC(=O)c2sc3nc(N)c(C#N)cc3c2N)c1 | 12.2 |
| COc1ccc(/C=N/NC(=O)C(=O)N2CCCCCC2)cc1 | 9.68 |
| Cc1cc(Br)ccc1SCC(=O)OCC(=O)N1CCN(C(=O)c2ccco2)CC1 | -15.3 |
| O=C(Cn1cc(C(=O)C2CC2)c2ccccc21)NCc1ccc2c(c1)OCO2 | 8.71 |
| Cc1ccccc1CNS(=O)(=O)c1c(C(=O)N2CCCC2)c(C)n(C)c1C | 15.5 |
| CN(C)S(=O)(=O)N(CC(=O)N1CCOCC1)c1ccccc1 | 4.6 |
| COC(=O)CCCN1C(=O)c2cccc3cccc(c23)C1=O | 12.3 |
| CS(=O)(=O)Nc1ccc(C(=O)Nc2ccc3c(c2)OCO3)cc1 | 7.26 |
| CCOC(=O)c1c(/N=C/C2C(=O)NC(=S)NC2=O)sc2c1CCC2 | 8.76 |
| COc1cccc(CN(C)C(=O)c2cccc(S(=O)(=O)N3CCN(c4ccc(F)cc4)CC3)c2)c1OC | 7.83 |
| C=CCn1c(-c2cc3cccc(OC)c3o2)n[nH]c1=S | 10.8 |
| CCOc1ccc(NC(=O)C2CCCN(S(=O)(=O)c3cccc4nsnc34)C2)cc1 (stereo not shown) | 6.22 |
| Cc1cc(SCc2cc(=O)[nH]c3ccccc23)nc2ccccc12 | 17.9 |
| CCOc1ccc(CCNC(=O)C(C)n2nc(C)c3c(C)n(-c4ccccc4)nc3c2=O)cc1 (stereo not shown) | -5.23 |
| O=C(OC1CCN(c2ncc(C(F)(F)F)cc2Cl)CC1)c1ccccc1 | 5.38 |
| CC(=O)c1ccc(N2CCC(c3cc(-c4ccc(Cl)cc4Cl)n[nH]3)CC2)c([N+](=O)[O-])c1 | 9 |
| Cc1cccc(C(=O)Nc2cccc(C(=O)Nc3cc(C)ccn3)c2)c1 | 12.1 |
| C=C(C)CN1C(=O)c2ccccc2C1=O | 4.89 |

| SMILES | hERG current change (%, negative = inhibition) at 1uM [%] |
| --- | --- |
| COc1ccc(-n2c(N)c(C(=O)NCc3ccco3)c3nc4ccccc4nc32)cc1 | 10.3 |
| COc1ccc(/C=C/C(=O)O)cc1Cl | 13.9 |
| O=C(CNC(=O)C1CCCCC1)NNC(=O)c1ccccc1Br | 6.57 |
| Cn1c(-c2sccc2OCc2ccccc2)n[nH]c1=S | 6.25 |
| CCOC(=O)N/N=C\c1ccc(C)s1 | -0.197 |
| COc1cc(NC(=O)Cn2ccsc2=N)c(C)cc1[N+](=O)[O-].Cl | 7.46 |
| NC(=O)C(F)(F)C12OC3C4C5CC(C6C5C3C61)C42 (stereo not shown) | 12.7 |
| O=C(O)/C=C/C(=O)Nc1ccc(S(=O)(=O)N2CCCC2)cc1 | 9.79 |
| CC1CCCC(C)N1C(=O)Nc1cccc(Cl)c1 (stereo not shown) | 11 |
| COC(=O)C1CCCN1S(=O)(=O)c1ccc2ccccc2c1 (stereo not shown) | -2.62 |
| CCOC(=O)[C@@H]1[C@H]2COc3ccc(Br)cc3[C@H]2N2C(=O)N(c3ccc(F)cc3)C(=O)[C@]12C | 13.1 |
| CCCS(=O)(=O)N1CCN(Cc2ccco2)CC1.O=C(O)C(=O)O | 13.8 |
| O=C(NCc1cccs1)C1CC(c2ccc(F)cc2)=NO1 (stereo not shown) | 7.19 |
| Cc1cc(NC(=O)CSc2nc(C)c(C)c(=O)[nH]2)no1 | 14.9 |
| CC(NC(=O)CNC(=O)c1ccco1)c1ccccc1 (stereo not shown) | 11.9 |
| Cc1ccc(SCCNC(=O)/C=C/c2ccc(Cl)cc2)cc1 | 9.31 |
| CCCn1c(SCC(=O)NC2CCCCC2)nnc1C1CC1 | 8.58 |
| Cc1nn(C(=O)CN2C(=O)c3ccccc3C2=O)c(C)c1Br | 6.8 |
| Clc1ccc(-c2cn3cccnc3n2)cc1 | 15.3 |
| CCOc1cc(/C=N/NC(=O)c2nnn(-c3nonc3N)c2C)ccc1OCc1cccc(F)c1 | 21.2 |

| SMILES | hERG current change (%, negative = inhibition) at 1uM [%] |
| --- | --- |
| CC(C)(C)c1ccc(C(=O)Cn2cnnc2C#N)cc1 | 6.52 |
| CC(C)(C)C(=O)OCCNc1nc(-c2ccccc2)nc2ccccc12 | 5.38 |
| CN1c2ccccc2-c2nc3ccccc3n2C1c1ccccn1 (stereo not shown) | 9.52 |
| Cc1ccc(NC(=O)N2CCN(C(=O)c3ccco3)CC2)cc1Cl | 11.4 |
| NC(=O)Nc1ccc(C(=O)OCC(=O)Nc2ccc([N+](=O)[O-])cc2C(F)(F)F)cc1 | 5 |
| Nc1nnc(-c2ccc(Cl)cc2)o1 | 8.73 |
| CCOc1ccccc1N(CC(=O)N1CCc2ccccc2C1)S(C)(=O)=O | 17.5 |
| O=c1oc(-c2cccc(S(=O)(=O)N3CCOCC3)c2)nc2ccccc12 | 6.33 |
| CC(C)(C)CC(=O)N1CCN(Cc2ccc3c(c2)OCO3)CC1 | 8.86 |
| Cc1cc(C(=O)N2CCCC(Nc3ccc(F)cc3)C2)c(C)o1 (stereo not shown) | 11.8 |
| CC1CC(=O)N(CC(=O)Nc2ccc(Br)cc2)c2ccccc2S1(=O)=O (stereo not shown) | 7.6 |
| Cc1ccc2c(c1)nnn2C1CCN(S(=O)(=O)c2ccc(C(=O)N3CC(C)CC(C)C3)cc2)CC1 (stereo not shown) | 8.68 |
| COC(=O)C1=C(c2cccc(OCc3ccccc3)c2)C[C@@H]2CC[C@H]1N2C(=O)NCCOc1ccccc1 | 10.7 |
| CCOC(=O)c1ccc2c(c1)nc(C)n2CC | 12.6 |
| CSCc1c(C(=O)NC2CCCc3ccccc32)oc2ccccc12 (stereo not shown) | 11.9 |
| COc1ccccc1NC(NC(=O)c1ccco1)C(=O)c1ccccc1 (stereo not shown) | 2.96 |
| O=C(CSC1c2ccccc2-c2ccccc21)N/N=C/c1ccc(C(=O)O)cc1 | 11.3 |
| COc1ccc(N2C(=O)C3C(C2=O)C(C(=O)c2ccccc2)N2CCCC32)cc1 (stereo not shown) | -7.02 |

Reference: paper PMC4336329 (PLoS ONE, 2015)
